Assay results published in PubChem BioAssay AID493208 (National Center for Advancing Translational Sciences (NCATS), 2011).
Out of some 44,000 compounds screened, about 340 (0.77%) were called active. Roughly 5% stayed inconclusive and do not appear here. Calls come from the whole dose curve; as a rule, active = well fitted inhibition curve with a large enough effect; inconclusive = small, poorly fitted or top-dose-only effect; inactive = flat fitted curve, though single readings scatter. The list shows a part of the results.

experiment: Acumen qHTS Assay for Inhibitors of the mTORC1 Signaling Pathway in MEF (Tsc2-/-, p53-/-) Cells: Sytravon; conditions: phospho-rpS6 immunofluorescence/PI, 24 h; series mostly up to 38.3 µM; activity change, negative = inhibition: at the top concentration;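 note: plate controls were DMSO for no effect and rapamycin for full effect; nearly all actives have a fitted effect of over 50% in size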
Outline: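 Cell-based qHTS: Tsc2-/- p53-/- MEF, 24 h cpd, 37 °C; fix/perm, anti-phospho-S6 Alexa-488 + PI; Acumen 488 nm scan; pS6/PI ratio, % positive cells; rapamycin 7.5 nM = inhibition ref; PI count = viability.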

Activity change, negative = inhibition, inactive:
Cc1ccc(C(=O)NCCSc2c[nH]c3ccccc23)cc1C -4.71%
Cc1cc(C)cc(NC(=O)CSc2oc(-c3cccs3)nc2S(=O)(=O)c2ccc(Br)cc2)c1 1.25%
CCc1ccc(NCc2cc3ccc(OC)cc3n(CC(=O)Nc3ccccc3OC)c2=O)cc1 -1.69%
COC(=O)c1sc2cccc(F)c2c1S(=O)(=O)NC(C)c1ccccc1 (stereo not drawn) -14.2%
COc1ccc(NC(=O)C2(S(=O)(=O)c3ccc(C)cc3)CC2)c(OC)c1 -19.6%
CCOC(=O)C1CCN(C(=O)c2ccc3c(=O)n4nc(Nc5ccccc5)sc4nc3c2)CC1 -4.57%
COc1ccc(-c2c(C)c3ccc(O)c(CN4CCCCC4C)c3oc2=O)cc1OC (stereo not drawn) -20%
CCCN(CCC)C(=O)Cn1c(=O)n(-c2ccc(CC)cc2)c(=O)c2c3c(sc21)CCC3 -1.09%
CCOc1ccc(NC(c2ccc(Cl)cc2)c2nnc(-c3cccc(F)c3)o2)cc1 (stereo not drawn) 1.18%
Cc1ccc(CN(C(=O)COc2cccc(Cl)c2)c2ccccn2)o1 -1.54%
O=C(Nc1ccccc1F)C(c1ccccc1)N1Cc2ccccc2C1=O (stereo not drawn) 0.475%
CCCOC(=O)c1ccc(NC(=O)C2CC(=O)N(c3ccc(C)cc3)C2)cc1 (stereo not drawn) -12.9%
O=C(CSc1nccn1Cc1ccc(F)cc1)NC1CCCC1 1.13%
CCCOc1ccccc1C(=O)N1CCCCC1CCN1CCCCC1 (stereo not drawn) -0.525%
CCC(=O)N1c2ccccc2CC1C(=O)NCCc1ccccc1OC (stereo not drawn) 0.924%
CCc1ccc(-n2nc(C)c3c(C(=O)Nc4ccc(Cl)cc4)cc(C)nc32)cc1 -0.115%
Cc1ccc(C)c(-c2ccc(=O)n(C(C)C(=O)Nc3ccccc3C(F)(F)F)n2)c1 (stereo not drawn) 2.98%
CCCCNC(=O)CSc1nc(-c2ccc(OC)cc2)cc(C(F)(F)F)n1 1.1%
O=C(NC1CC(=O)N(c2cccc(F)c2)C1)c1ccc(S(=O)(=O)N2CCCCC2)cc1 (stereo not drawn) 0.0025%
COc1ccc(OC)c(-n2nnc(-c3nc(-c4ccc5c(c4)OCO5)no3)c2C)c1 -8.34%
COC(=O)c1ccccc1NC(=O)CCn1c(=O)c2cccn2c2cccnc21 4.67%
Cc1noc(-c2ccc(N(C)Cc3ccccc3)c([N+](=O)[O-])c2)n1 5.62%
COc1ccc(C(=O)Nc2cc(-c3nc4ncccc4o3)ccc2C)cc1Br 8.97%
COc1ccc(OCc2nc(-c3ccc(OC)c(OC)c3)no2)cc1 -0.941%
CC(=O)Nc1ccc(C)cc1-c1nc2ccccc2n(Cc2cccc(Br)c2)c1=O 2.42%
CC(=O)Nc1c(C)nn(-c2ccccc2)c1N1CCC(C(=O)Nc2ccc(C)cc2Cl)CC1 1.84%
CCOC(=O)C1CCCN(C(=O)c2ccc(C)c(NC(=O)c3nsc4ccccc34)c2)C1 (stereo not drawn) -2.75%
COc1cccc(NC(=O)CSc2nnc3[nH]c(=O)cc(-c4ccccc4)n23)c1 0.464%
CCCc1nc2nc(C)c(NS(=O)(=O)c3ccc(C)c(C)c3)c(=O)n2[nH]1 -3.5%
COc1ccc(CCNc2oc(/C=C/c3ccc(OC)c(OC)c3)nc2C#N)cc1 -19.2%
CCCCOc1ccc(C(=O)NCCS(=O)(=O)N2CCN(c3ccccc3OC)CC2)cc1 5.28%
Cc1ccc2oc(-c3cc(NC(=O)Cc4ccccc4)ccc3Cl)nc2c1 -4.53%
O=C(NC1CC(=O)N(c2ccc(F)cc2)C1)c1ccc(S(=O)(=O)N2CCCC2)cc1 (stereo not drawn) -4.09%
CCN(C(=O)CSc1nc2ccccc2nc1Cc1cccc(OC)c1)c1cccc(C)c1 -31.3%
O=C(COc1ccc(Cl)cc1)Nc1ccc(O)c(-c2nc3ccccc3s2)c1 -1.61%
Cc1ccc(Cn2c(C(=O)O)c(CNCCc3cccs3)c3ccc(C)cc32)cc1 0.203%
Cc1ccc(NC(=O)Nc2nc3c(s2)CCCCCC3)cc1C -17.1%
COc1ccccc1NC(=O)c1ccc2[nH]c(C)cc(=O)c2c1 -0.531%
Cc1cc(Br)ccc1NC(=O)COc1cc(=O)n(C)c2ccccc12 -0.386%
O=c1c2sc3ccccc3c2n(Cc2ccccc2F)c(=O)n1-c1ccccc1Cl -10.7%
Cc1ccccc1NC(=O)c1c(C)oc2ccc(O)c(CN3CCCC(C)C3)c12 (stereo not drawn) -17.8%
COc1cccc(CNC(=O)CSc2nc3ccccc3nc2Cc2ccccc2)c1 2.35%
COc1cc2c(cc1OC)C(c1ccc(F)cc1)N(c1ccccc1)C(=O)C2 (stereo not drawn) -0.827%
Cc1nnc(N2CCC(C(=O)NCc3ccc(F)cc3)CC2)c2nn(-c3ccc(Cl)cc3)c(C)c12 -7.52%
Cc1ccc2c(c1)cc(C(=O)NCc1ccc(F)cc1)n2C -13.3%
COc1ccccc1N1CCN(c2ccc(=O)n(CC(=O)O)n2)CC1 -4.92%
CCOCC(=O)Nc1ccc(-c2cn3c(C)csc3n2)cc1 0%
COc1cccc(CNc2ncnc3c2nnn3C)c1 -3.24%
CNC(=O)C1CCC(Cn2c(=O)c3sccc3n(CC(=O)N3CCCC3)c2=O)CC1 (stereo not drawn) 4.82%
CCN(C(=O)CSc1nc(-c2ccccc2)no1)c1cccc(C)c1 6.08%
Cc1cccc2cc(CN(C(=O)c3cccc(Cl)c3)c3ccccc3)c(=O)[nH]c12 -6.16%
CCOc1ccc(C2C(C(N)=O)=C(C)Nc3nc(-c4ccc(OC)cc4)nn32)cc1 (stereo not drawn) 1.1%
COc1ccccc1C(=O)Nc1cccc(OCc2cc(=O)n3c4c(sc3n2)CCCC4)c1 0.154%
COc1ccccc1Nc1nn2c(=O)c3ccc(C(=O)NC4CCC(C)CC4)cc3nc2s1 (stereo not drawn) -0.345%
Cc1cc2ccccc2n1CCNC(=O)c1ccccc1F -0.262%
O=c1c2sc3ccccc3c2n(Cc2ccc(F)cc2)c(=O)n1Cc1ccco1 0.0756%
O=C(NCC(c1ccc2c(c1)OCO2)N1CCN(c2ccccc2)CC1)C(=O)Nc1ccccc1 (stereo not drawn) 2.63%
CC(C)c1ccc(S(=O)(=O)c2nnn3c2nc(NCc2cccs2)c2sccc23)cc1 -5.34%
COc1ccc(C(=O)Nc2ccccc2)cc1S(=O)(=O)Nc1ccc(Br)cc1 -0.0762%
O=C(OCc1cc(=O)n2nc(C3CC3)sc2n1)c1ccc(NC(=O)c2ccccc2Cl)cc1 5.17%
Cc1c(C(=O)Nc2ccccc2)sc2nc(-c3cc4ccccc4oc3=O)[nH]c(=O)c12 -1.22%
CCc1ccc2oc(C(=O)Nc3cc(Cl)ccc3OC)cc(=O)c2c1 -3.9%
Cc1ccc(NC(=O)CCn2nc(-c3ccccc3)c3ccccc3c2=O)c(C)c1 11.6%
